Results are given in words; binding and its absence hold for the method and conditions named. In cells and extracts the contact can be indirect. Some results given as binding are weak or reduced against the parent protein; the word gives no strength.
Tests used:
[1] = target: T1, endogenous TEKT2 (mouse (endogenous in mouse testis and sperm)) (UniProt Q922G7); test: proximity ligation; Duolink in situ PLA on mouse sperm slides (WT and Tektip1-/-); mouse TEKTIP1 antiserum with rabbit anti-TEKT1, -TEKT2, -TEKT3 or -TEKT4
T1 sequence: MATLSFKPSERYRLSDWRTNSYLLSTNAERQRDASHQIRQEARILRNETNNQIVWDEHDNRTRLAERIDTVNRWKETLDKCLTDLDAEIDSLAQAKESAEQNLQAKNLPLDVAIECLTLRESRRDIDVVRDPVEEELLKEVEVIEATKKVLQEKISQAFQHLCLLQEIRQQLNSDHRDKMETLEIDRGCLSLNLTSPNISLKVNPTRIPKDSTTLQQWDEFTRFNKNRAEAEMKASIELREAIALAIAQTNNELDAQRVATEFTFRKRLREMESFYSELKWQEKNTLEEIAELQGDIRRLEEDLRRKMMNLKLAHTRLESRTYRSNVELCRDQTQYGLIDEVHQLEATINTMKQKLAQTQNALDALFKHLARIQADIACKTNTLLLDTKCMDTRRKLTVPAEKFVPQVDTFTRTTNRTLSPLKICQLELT

By UniProt entry, the sequences of proteins in these tests, tags left out.
UniProt Q9DAJ2: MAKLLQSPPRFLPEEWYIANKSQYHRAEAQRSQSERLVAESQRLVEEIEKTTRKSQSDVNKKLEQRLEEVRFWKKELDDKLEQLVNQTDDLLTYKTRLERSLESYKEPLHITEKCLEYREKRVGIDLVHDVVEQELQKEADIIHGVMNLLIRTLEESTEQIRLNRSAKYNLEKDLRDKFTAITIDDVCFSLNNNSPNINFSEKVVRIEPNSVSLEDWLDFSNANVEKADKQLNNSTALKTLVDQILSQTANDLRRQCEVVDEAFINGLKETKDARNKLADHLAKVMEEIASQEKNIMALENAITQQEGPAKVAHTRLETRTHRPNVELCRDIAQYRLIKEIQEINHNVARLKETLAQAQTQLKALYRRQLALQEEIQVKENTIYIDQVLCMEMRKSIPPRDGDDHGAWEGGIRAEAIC

[2] = target: T2, endogenous TEKT3 (mouse (endogenous in mouse testis and sperm)) (UniProt Q6X6Z7); test: as above
T2 sequence: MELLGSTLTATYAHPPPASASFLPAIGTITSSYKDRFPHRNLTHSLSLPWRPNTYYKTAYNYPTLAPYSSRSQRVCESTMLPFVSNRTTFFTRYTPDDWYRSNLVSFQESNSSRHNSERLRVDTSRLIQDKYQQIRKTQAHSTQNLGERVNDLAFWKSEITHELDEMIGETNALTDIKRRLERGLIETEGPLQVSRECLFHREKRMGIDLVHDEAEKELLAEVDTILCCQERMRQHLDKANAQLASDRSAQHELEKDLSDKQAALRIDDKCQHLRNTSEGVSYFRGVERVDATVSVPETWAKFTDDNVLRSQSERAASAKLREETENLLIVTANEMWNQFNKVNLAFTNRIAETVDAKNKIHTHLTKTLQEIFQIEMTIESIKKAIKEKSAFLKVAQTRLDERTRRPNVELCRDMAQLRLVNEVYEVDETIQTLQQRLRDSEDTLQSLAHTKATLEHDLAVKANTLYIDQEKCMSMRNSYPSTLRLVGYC

[3] = target: endogenous TEKT1 (mouse (endogenous in mouse testis and sperm)) (UniProt Q9DAJ2); test: as above
[4] = target: T3, endogenous TEKT4 (mouse (endogenous in mouse testis and sperm)) (UniProt Q149S1); test: as above
T3 sequence: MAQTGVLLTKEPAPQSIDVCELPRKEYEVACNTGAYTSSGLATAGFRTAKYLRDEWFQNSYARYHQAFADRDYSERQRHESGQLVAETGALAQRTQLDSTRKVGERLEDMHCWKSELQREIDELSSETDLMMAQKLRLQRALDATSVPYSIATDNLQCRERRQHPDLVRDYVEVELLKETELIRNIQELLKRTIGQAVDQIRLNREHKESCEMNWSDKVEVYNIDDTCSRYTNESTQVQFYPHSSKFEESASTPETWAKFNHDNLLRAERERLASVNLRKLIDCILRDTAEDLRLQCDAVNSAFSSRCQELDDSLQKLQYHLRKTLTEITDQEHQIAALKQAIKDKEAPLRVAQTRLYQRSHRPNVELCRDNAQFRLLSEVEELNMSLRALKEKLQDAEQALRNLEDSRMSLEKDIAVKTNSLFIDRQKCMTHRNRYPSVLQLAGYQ

[5] = target: T1, endogenous TEKT2 (mouse (endogenous in mouse testis and sperm)); test: co-IP; endogenous proteins in adult mouse testis lysates (Pierce IP Lysis Buffer), WT and Tektip1-/- mice; precipitated with rabbit anti-TEKT1, -TEKT2, -TEKT3 or -TEKT4; rabbit IgG as negative control; Western blot
[6] = target: T2, endogenous TEKT3 (mouse (endogenous in mouse testis and sperm)); test: as above
[7] = target: endogenous TEKT1 (mouse (endogenous in mouse testis and sperm)) (UniProt Q9DAJ2); test: as above
[8] = target: T3, endogenous TEKT4 (mouse (endogenous in mouse testis and sperm)); test: as above

B1: endogenous TEKTIP1 (protein, UniProt A6H6Q4 1-206)
chain: MENVRREATRPSVPSGTLELYFPDHLYRNDYVSLEGPRWAPAIKQAVRWKFTPMGRDAAGQVWFTGLTNSEPGDAWYKLPRALDTPYREAHTRWHGCFQSRQRGLPPAYTQHLREMAFWDPAITAQYLNSGPRWGCMQWRDRQIRGKEFVVTRNQFGAKLPWRSDYVPLLSLPQRPRFTAQDFRQRGLQRPCPAIGQPPPAFTPAL
Q: Which binding [1] does the source give for B1 here?
A: Its binding is “no binding”.

Q: What about the binding [2] of the same binder?
A: Its binding is “binds”.

Q: And the binding [3]?
A: The binding was “no binding”.

Q: What about the binding [4] of the same binder?
A: Its binding is “no binding”.

Q: And the binding [5]?
A: Its binding is “no binding”.

Q: What about the binding [6] of the same binder?
A: Its binding is “binds”.

Q: And the binding [7]?
A: The binding was “no binding”.

Q: What about the binding [8] of the same binder?
A: The binding was “no binding”.

B2: endogenous TEKT2 (protein, UniProt Q922G7 1-430)
chain: MATLSFKPSERYRLSDWRTNSYLLSTNAERQRDASHQIRQEARILRNETNNQIVWDEHDNRTRLAERIDTVNRWKETLDKCLTDLDAEIDSLAQAKESAEQNLQAKNLPLDVAIECLTLRESRRDIDVVRDPVEEELLKEVEVIEATKKVLQEKISQAFQHLCLLQEIRQQLNSDHRDKMETLEIDRGCLSLNLTSPNISLKVNPTRIPKDSTTLQQWDEFTRFNKNRAEAEMKASIELREAIALAIAQTNNELDAQRVATEFTFRKRLREMESFYSELKWQEKNTLEEIAELQGDIRRLEEDLRRKMMNLKLAHTRLESRTYRSNVELCRDQTQYGLIDEVHQLEATINTMKQKLAQTQNALDALFKHLARIQADIACKTNTLLLDTKCMDTRRKLTVPAEKFVPQVDTFTRTTNRTLSPLKICQLELT
Q: For B2, which binding [6] is on record?
A: Its binding is “binds”.

Q: What about the binding [8] of the same binder?
A: The binding was “binds”.

B3: endogenous TEKT4 (protein, UniProt Q149S1 1-447)
chain: MAQTGVLLTKEPAPQSIDVCELPRKEYEVACNTGAYTSSGLATAGFRTAKYLRDEWFQNSYARYHQAFADRDYSERQRHESGQLVAETGALAQRTQLDSTRKVGERLEDMHCWKSELQREIDELSSETDLMMAQKLRLQRALDATSVPYSIATDNLQCRERRQHPDLVRDYVEVELLKETELIRNIQELLKRTIGQAVDQIRLNREHKESCEMNWSDKVEVYNIDDTCSRYTNESTQVQFYPHSSKFEESASTPETWAKFNHDNLLRAERERLASVNLRKLIDCILRDTAEDLRLQCDAVNSAFSSRCQELDDSLQKLQYHLRKTLTEITDQEHQIAALKQAIKDKEAPLRVAQTRLYQRSHRPNVELCRDNAQFRLLSEVEELNMSLRALKEKLQDAEQALRNLEDSRMSLEKDIAVKTNSLFIDRQKCMTHRNRYPSVLQLAGYQ
Q: With B3 as the binder, how does the binding [6] read?
A: Its binding is “binds”.

B4: endogenous TEKT3 (protein, UniProt Q6X6Z7 1-490)
chain: MELLGSTLTATYAHPPPASASFLPAIGTITSSYKDRFPHRNLTHSLSLPWRPNTYYKTAYNYPTLAPYSSRSQRVCESTMLPFVSNRTTFFTRYTPDDWYRSNLVSFQESNSSRHNSERLRVDTSRLIQDKYQQIRKTQAHSTQNLGERVNDLAFWKSEITHELDEMIGETNALTDIKRRLERGLIETEGPLQVSRECLFHREKRMGIDLVHDEAEKELLAEVDTILCCQERMRQHLDKANAQLASDRSAQHELEKDLSDKQAALRIDDKCQHLRNTSEGVSYFRGVERVDATVSVPETWAKFTDDNVLRSQSERAASAKLREETENLLIVTANEMWNQFNKVNLAFTNRIAETVDAKNKIHTHLTKTLQEIFQIEMTIESIKKAIKEKSAFLKVAQTRLDERTRRPNVELCRDMAQLRLVNEVYEVDETIQTLQQRLRDSEDTLQSLAHTKATLEHDLAVKANTLYIDQEKCMSMRNSYPSTLRLVGYC
Q: How did the binding [8] turn out when B4 was run?
A: Its binding is “binds”.

Source: article PMC10917850
